Experimental data as given in the supplement of paper PMC8728848.
The other results are listed elsewhere or left out.

Experiments:
Assay in all cases: glycan array binding signal (z-score within array); higher = stronger binding
Conditions in all cases: glycan notation: IUPAC condensed, linker removed
[1] = target: Neu5Ac(a2-3)Gal(b1-3)GlcNAc6S
Summary of the method: (§1)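 Negative Z-scores can be read as non-binding. The Z-score is calculated within each array and then averaged across arrays of one protein sequence at different concentrations or buffers and across linkers. Arrays, 3228 in all, were curated from the Consortium for Functional Glycomics database and kept only where the protein sequence was available.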

[2] = target: Neu5Ac(a2-3)Gal(b1-3)[Fuc(a1-4)]GlcNAc
Summary of the method: as §1

[3] = target: Neu5Ac(a2-3)Gal(b1-3)[Fuc(a1-4)]GlcNAc(b1-3)Gal(b1-3)[Fuc(a1-4)]GlcNAc
Summary of the method: as §1

[4] = target: Neu5Ac(a2-3)Gal(b1-3)[Fuc(a1-4)]GlcNAc(b1-3)Gal(b1-4)[Fuc(a1-3)]GlcNAc
Summary of the method: as §1

[5] = target: Neu5Ac(a2-3)Gal(b1-3)[GlcNAc(b1-6)]GalNAc
Summary of the method: as §1

[6] = target: Neu5Ac(a2-3)Gal(b1-3)[Neu5Ac(a2-6)]GalNAc
Summary of the method: as §1

[7] = target: Neu5Ac(a2-3)Gal(b1-3)[Neu5Ac(a2-6)]GlcNAc(b1-3)[Fuc(a1-3)[Gal(b1-4)]GlcNAc(b1-6)]Gal(b1-4)Glc
Summary of the method: as §1

[8] = target: Neu5Ac(a2-3)Gal(b1-3)]Neu5Ac(a2-3)Gal(b1-4)]GlcNAc
Summary of the method: as §1

[9] = target: Neu5Ac(a2-3)Gal(b1-4)Glc
Summary of the method: as §1

[10] = target: Neu5Ac(a2-3)Gal(b1-4)GlcNAc
Summary of the method: as §1

[11] = target: Neu5Ac(a2-3)Gal(b1-4)GlcNAc(b1-2)Man
Summary of the method: as §1

[12] = target: Neu5Ac(a2-3)Gal(b1-4)GlcNAc(b1-2)Man(a1-3)[GlcNAc(b1-4)][Neu5Ac(a2-3)Gal(b1-4)GlcNAc(b1-2)Man(a1-6)]Man(b1-4)GlcNAc(b1-4)GlcNAc
Summary of the method: as §1

[13] = target: Neu5Ac(a2-3)Gal(b1-4)GlcNAc(b1-2)Man(a1-3)[Neu5Ac(a2-3)Gal(b1-4)GlcNAc(b1-2)Man(a1-6)]Man(b1-4)GlcNAc(b1-4)GlcNAc
Summary of the method: as §1

[14] = target: Neu5Ac(a2-3)Gal(b1-4)GlcNAc(b1-2)Man(a1-3)[Neu5Ac(a2-3)Gal(b1-4)GlcNAc(b1-2)Man(a1-6)]Man(b1-4)GlcNAc(b1-4)[Fuc(a1-6)]GlcNAc
Summary of the method: as §1

[15] = target: Neu5Ac(a2-3)Gal(b1-4)GlcNAc(b1-2)Man(a1-3)[Neu5Ac(a2-6)Gal(b1-4)GlcNAc(b1-2)Man(a1-6)]Man(b1-4)GlcNAc(b1-4)GlcNAc
Summary of the method: as §1

[16] = target: Neu5Ac(a2-3)Gal(b1-4)GlcNAc(b1-2)[Neu5Ac(a2-3)Gal(b1-4)GlcNAc(b1-4)]Man(a1-3)[GlcNAc(b1-4)][Neu5Ac(a2-3)Gal(b1-4)GlcNAc(b1-2)[Neu5Ac(a2-3)Gal(b1-4)GlcNAc(b1-6)]Man(a1-6)]Man(b1-4)GlcNAc(b1-4)GlcNAc
Summary of the method: as §1

[17] = target: Neu5Ac(a2-3)Gal(b1-4)GlcNAc(b1-2)[Neu5Ac(a2-3)Gal(b1-4)GlcNAc(b1-4)]Man(a1-3)[GlcNAc(b1-4)][Neu5Ac(a2-3)Gal(b1-4)GlcNAc(b1-4)Man(a1-6)]Man(b1-4)GlcNAc(b1-4)GlcNAc
Summary of the method: as §1

[18] = target: Neu5Ac(a2-3)Gal(b1-4)GlcNAc(b1-2)[Neu5Ac(a2-3)Gal(b1-4)GlcNAc(b1-6)]Man(a1-6)[Neu5Ac(a2-3)Gal(b1-4)GlcNAc(b1-2)Man(a1-3)]Man(b1-4)GlcNAc(b1-4)GlcNAc
Summary of the method: as §1

[19] = target: Neu5Ac(a2-3)Gal(b1-4)GlcNAc(b1-2)[Neu5Ac(a2-3)Gal(b1-4)GlcNAc(b1-6)]Man(a1-6)[Neu5Ac(a2-3)Gal(b1-4)GlcNAc(b1-2)Man(a1-3)][GlcNAc(b1-4)]Man(b1-4)GlcNAc(b1-4)GlcNAc
Summary of the method: as §1

[20] = target: Neu5Ac(a2-3)Gal(b1-4)GlcNAc(b1-3)Gal
Summary of the method: as §1

[21] = target: Neu5Ac(a2-3)Gal(b1-4)GlcNAc(b1-3)Gal(b1-3)GlcNAc
Summary of the method: as §1

[22] = target: Neu5Ac(a2-3)Gal(b1-4)GlcNAc(b1-3)Gal(b1-4)GlcNAc
Summary of the method: as §1

[23] = target: Neu5Ac(a2-3)Gal(b1-4)GlcNAc(b1-3)Gal(b1-4)GlcNAc(b1-2)Man(a1-3)[Neu5Ac(a2-3)Gal(b1-4)GlcNAc(b1-3)Gal(b1-4)GlcNAc(b1-2)Man(a1-6)]Man(b1-4)GlcNAc(b1-4)GlcNAc
Summary of the method: as §1

[24] = target: Neu5Ac(a2-3)Gal(b1-4)GlcNAc(b1-3)Gal(b1-4)GlcNAc(b1-3)Gal(b1-4)GlcNAc
Summary of the method: as §1

[25] = target: Neu5Ac(a2-3)Gal(b1-4)GlcNAc(b1-3)Gal(b1-4)GlcNAc(b1-3)Gal(b1-4)GlcNAc(b1-2)Man(a1-3)[Neu5Ac(a2-3)Gal(b1-4)GlcNAc(b1-3)Gal(b1-4)GlcNAc(b1-3)Gal(b1-4)GlcNAc(b1-2)Man(a1-6)]GalNAc
Summary of the method: as §1

[26] = target: Neu5Ac(a2-3)Gal(b1-4)GlcNAc(b1-3)Gal(b1-4)GlcNAc(b1-3)GalNAc
Summary of the method: as §1

[27] = target: Neu5Ac(a2-3)Gal(b1-4)GlcNAc(b1-3)Gal(b1-4)GlcNAc(b1-3)[Neu5Ac(a2-3)Gal(b1-4)GlcNAc(b1-3)Gal(b1-4)GlcNAc(b1-6)]GalNAc
Summary of the method: as §1

[28] = target: Neu5Ac(a2-3)Gal(b1-4)GlcNAc(b1-3)Gal(b1-4)GlcNAc(b1-6)[Gal(b1-3)]GalNAc
Summary of the method: as §1

[29] = target: Neu5Ac(a2-3)Gal(b1-4)GlcNAc(b1-3)Gal(b1-4)[Fuc(a1-3)]GlcNAc
Summary of the method: as §1

[30] = target: Neu5Ac(a2-3)Gal(b1-4)GlcNAc(b1-3)GalNAc
Summary of the method: as §1

B1: Als1 (Candida albicans), P46590 (protein)
chain: KTITGVFDSFNSLTWSNAANYAFKGPGYPTWNAVLGWSLDGTSANPGDTFTLNMPCVFKYTTSQTSVDLTADGVKYATCQFYSGEEFTTFSTLTCTVNDALKSSIKAFGTVTLPIAFNVGGTGSSTDLEDSKCFTAGTNTVTFNDGDKDISIDVEFEKSTVDPSGYLYASRVMPSLNKVTTLFVAPQCENGYTSGTMGFSSSNGDVAIDCSNIHIGITKGLNDWNYPVSSESFSYTKTCTSNGIQIKYQNVPAGYRPFIDAYISATDVNQYTLAYTNDYTCAGSRLQSKPFTLRWTGYKNSDAGSNGIVIVATTRTVTDSTTAVTTLPFNPSVDKTKTIEILQPIPTTTITTSYVGVTTSYLTKTAPIGETATVIVDVPYHTTTTVTSEWTGTITTTTTRTNPTDSIDTVVVQVP
glycan array binding signal (z-score) [1]: 0.907 | glycan array binding signal (z-score) [2]: -0.874 | glycan array binding signal (z-score) [3]: -0.179 | glycan array binding signal (z-score) [4]: -0.015 | glycan array binding signal (z-score) [5]: 2.38 | glycan array binding signal (z-score) [6]: -0.412 | glycan array binding signal (z-score) [7]: -0.663 | glycan array binding signal (z-score) [8]: 0.517 | glycan array binding signal (z-score) [9]: -0.414 | glycan array binding signal (z-score) [10]: -0.137 | glycan array binding signal (z-score) [11]: 0.357 | glycan array binding signal (z-score) [12]: -0.627 | glycan array binding signal (z-score) [13]: -0.437 | glycan array binding signal (z-score) [14]: -0.027 | glycan array binding signal (z-score) [15]: -0.509 | glycan array binding signal (z-score) [16]: 0.415 | glycan array binding signal (z-score) [17]: -0.662 | glycan array binding signal (z-score) [18]: -0.185 | glycan array binding signal (z-score) [19]: 0.321 | glycan array binding signal (z-score) [20]: -0.274 | glycan array binding signal (z-score) [21]: -0.688 | glycan array binding signal (z-score) [22]: -0.497 | glycan array binding signal (z-score) [23]: -0.331 | glycan array binding signal (z-score) [24]: -0.784 | glycan array binding signal (z-score) [25]: 3.84 | glycan array binding signal (z-score) [26]: -0.244 | glycan array binding signal (z-score) [27]: 0.139 | glycan array binding signal (z-score) [28]: -0.152 | glycan array binding signal (z-score) [29]: -0.466 | glycan array binding signal (z-score) [30]: -0.26
